# Measured values taken from paper PMC12040169 (PLOS Biology, 2025).
# The list shows a part of the results.
# Tested on: T1, C. trachomatis L2/434/Bu expressing GFP (CTL2-GFP)
# T1 construct: L2/434/Bu GFP intracellular growth in HeLa cells
# Parameters: species or system HeLa; C. trachomatis total inclusion area by high-content imaging, normalised to DMSO
# Conditions: total inclusion area; 28.5 h, 10 µM; inhibitor
# Summary of the method: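 High-content imaging followed the bulk GFP/resorufin measurement: fixed, Hoechst-stained cells were scored for GFP inclusions and host nuclei per well. Total inclusion area and count served as growth proxies, nuclei number as the viability proxy. MIC calculation matched the bulk assay.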
row,SMILES,% of control remaining
1,O=C(NC(=S)Nc1cccc(Cl)c1)c1cncc(Br)c1 [CBK264618],89.2311
2,COc1ccc(-c2nc(-c3ccncc3)ncc2C(=O)NC2CCCCC2)cc1 [CBK291111],137.443
3,O=C(Cn1cccc2cc(C3CCCNC3)nc1-2)N1CCCC1 (centres unmarked) [CBK285086],101.931
4,CCOc1ccc(C(=O)C2=C(O)C(=O)N(CCN(C)C)C2c2ccc(N(C)C)cc2)c(C)c1 (centres unmarked) [CBK264603],110.448
5,CSc1nsc(SCC(=O)OC2CC3CCC2(C)C3(C)C)n1 (centres unmarked) [CBK268941],89.952
6,COCCC(=O)Nc1ccc(N2CCNCC2)nc1 [CBK004749T],81.794
7,O=C(Cc1ccc(F)cc1)NCc1nnc(-c2cccs2)o1 [CBK284640],108.529
8,O=C(Cc1ccc(Cl)c(Cl)c1)N1CCCC2(CCN(Cc3ccccc3)C2)C1 (centres unmarked) [CBK136872],98.8257
9,COCCNc1cc(-c2ccco2)ncn1 [CBK090796],83.9828
10,CC(C)C(=O)N1CC2(CCN(CCS(=O)(=O)c3ccccc3)CC2)c2ccccc21 [CBK126726],57.8204
11,O=C1NCC2(CCN(C(=O)C3CC3)CC2)Oc2ccccc21 [CBK282918],77.9105
12,Nc1ncc(-c2ccco2)nc1N1CCOCC1 [CBK063456],74.5403
13,CCNS(=O)(=O)c1ccc(NS(=O)(=O)c2cc(C(=O)O)ccc2C)cc1 [CBK295296],92.2966
14,N#Cc1ccc(NCC(=O)Nc2ncn(Cc3cccnc3)n2)cc1 [CBK306343],48.9476
15,Cc1ccc(NC(=O)Nc2ccc3cc(Br)cnc3n2)c(C)c1 [CBK063269],100.954
16,CC(CNC(=O)CCc1cn(C)c2ccccc12)N1CCOCC1 (centres unmarked) [CBK281996],111.327
17,COc1c(C)cc(Br)cc1C(=O)NC(=S)Nc1ccccc1N1CCN(C)CC1 [CBK267855C],60.737
18,Cc1cc(C)c(-n2cccn2)c(CN2CCC(CO)C2)c1 (centres unmarked) [CBK282915],100.493
19,Cc1cc(NS(=O)(=O)c2ccc(OCCNS(C)(=O)=O)cc2)no1 [CBK268530],162.35
20,CN(CCOc1ccccc1)c1nccnc1N1CCNCC1 [CBK000035F],88.9611
21,CC(=O)Nc1ccc(CN(C)c2c(C)nc3c(OCC4CCCCC4)cccn23)cc1 [CBK147379],89.7197
22,O=C(O)CSC1c2ccccc2Oc2ccc(F)cc21 (centres unmarked) [CBK266462],94.7293
23,Cc1ccc(NC(=O)C2CCCN2S(=O)(=O)c2ccc(F)cc2)cc1F (centres unmarked) [CBK110164],40.6127
24,Cc1ccc(-c2csc(NC(=O)CS(=O)(=O)c3ccccc3)n2)cc1 [CBK287707],98.8899
25,CNc1cc(N2CCN(S(=O)(=O)N(C)C)CC2)ccc1[N+](=O)[O-] [CBK269311],97.8453
26,Cc1cc(Br)ccc1NC(=O)C(=O)NC1CC1 [CBK269284],95.7905
27,O=C(O)CN1CCC(Oc2nccnc2OCc2ccc(Cl)c(Cl)c2)CC1 [CBK144443],97.5305

row,SMILES,% of control remaining
1,Cc1cccc(Cc2cccc(C3CCCN(S(=O)(=O)c4cn(C)nc4C)C3)n2)c1 (centres unmarked) [CBK286131],62.5561
2,COc1cc([N+](=O)[O-])ccc1NC(=O)CN(C)S(=O)(=O)c1ccc2ccccc2c1 [CBK267387],101.527
3,O=C(O)c1sccc1S(=O)(=O)Nc1ccc(Cc2nc3ccccc3s2)cc1 [CBK295286],109.297
4,c1cncc(-c2ncc(-c3ccco3)c(-c3ccco3)n2)c1 [CBK284503],66.1944
5,O=C(Nc1cccc2[nH]ccc12)c1cccc(F)c1Cl [CBK159638],82.9759
6,CN1CCN(c2cc(CNC(=O)c3cc(O)nc4ccccc34)ccn2)CC1 [CBK279658],102.159
7,c1ccc2c(-c3cn4ccnc4c(Nc4ccc5cn[nH]c5c4)n3)cccc2c1 [CBK066346],87.8661
8,CCCn1c(SCC(=O)NCc2ccc(OC)cc2)n[nH]c1=O [CBK297549],110.575
9,COc1cc(CNC(=O)NC(=O)C2CCN(CCCc3ccc(Cl)c(Cl)c3)CC2)cc(OC)c1OC [CBK034858],106.768
10,COc1ccccc1N1C(=O)CC(SC(=N)N/N=C(\C)c2ccc(O)cc2)C1=O (centres unmarked) [CBK262766],102.954
11,O=C(c1ccc(O)nc1)N1CCN(Cc2cc(=O)n3ccsc3n2)CC1 [CBK306098],60.7642
12,CN1C(=O)CC2(C1=O)C(=O)N(Cc1nc(-c3ccc(Cl)cc3)no1)c1ccc(F)cc12 (centres unmarked) [CBK075442],96.1998
13,NS(=O)(=O)c1ccc(NC(=O)CCCOc2ccc(Cl)cc2Cl)cc1 [CBK261536],117.063
14,O=C(CSc1nc(=O)cc(O)[nH]1)N1CCc2ccccc21 [CBK269350],112.959
15,c1ccc(CCCN2CCN(Cc3cccc4ccccc34)CC2)cc1 [CBK264237],126.011
16,COc1ccc(F)c(CN(CC(C)(C)CN)C(=O)Nc2c(F)cccc2F)c1 [CBK002405C],4.727
17,Cc1cccc(CN2CCC(NC(=O)Cn3cnnn3)CC2)c1 [CBK305649],130.618
18,CN1CCOc2cc(S(=O)(=O)Nc3cccnc3N3CCOCC3)ccc21 [CBK062299],24.2044
19,c1ccc2c(c1)CCCN2c1ncnc2n[nH]cc12 [CBK287886],56.6456
20,Cc1nc2ccc(C(=O)O)cc2c2c1CC(CN)O2 (centres unmarked) [CBK286974],135.982
21,O=C(Nc1ccccc1)c1cccc(S(=O)(=O)NCc2ccncc2)c1 [CBK269980],95.2531
22,CN(C)c1ccc(-c2cnc3[nH]c(=O)n(C4CCCC4)c3n2)cc1 [CBK064964],86.1012
23,C[C@H]1[C@@H]2[C@@H](O)C([C@H](C)C(=O)N3CCCCC3)CC[C@@]2(C)CC[C@@H]1NC(=O)c1cnccn1 (some centres unmarked) [CBK289448],83.8308
24,C[C@H](NC(=O)N1CCC(c2nc(-c3ccccc3)c3ccccn23)CC1)c1ccccc1 [CBK047086],94.2819
25,COc1ccc(-c2cc(N3CCCN(C)CC3)n3nccc3n2)cc1 [CBK037244],94.1064
26,Cc1ncc([N+](=O)[O-])n1CC(=O)Nc1ccccc1F [CBK269335],94.9959
27,O=C(COc1ccc(N2CC(C(=O)O)CC2=O)cc1)Nc1cccc(C(F)(F)F)c1 (centres unmarked) [CBK268096],103.316

row,SMILES,% of control remaining
1,O=C(Cn1nnc2ccccc21)c1ccc2c(c1)CCN2S(=O)(=O)c1ccccc1 [CBK286464],62.6452
2,Cc1oc(NC(=O)CN2CCN(c3cccc(Cl)c3)CC2)c(C#N)c1C [CBK305906],49.1931
3,C/C(CC(=O)Nc1ccccc1C(N)=O)=N\NC(=O)c1ccoc1C [CBK262957],99.2177
4,Cc1cc(-c2cc(C)[nH]n2)[nH]n1 [CBK262079],106.079
5,CCN1/C(=C/C(=C/c2sc3ccccc3[n+]2CCCS(=O)(=O)[O-])OC)Sc2ccccc21 [CBK278203],80.4959
6,COc1ccc(CNCCN2CCOCC2)c(OC)c1 [CBK278180C],84.4265
7,NC(=O)c1ccc(SCC(=O)O)c([N+](=O)[O-])c1 [CBK034310],101.525
8,CCc1noc(C)c1C(=O)NCCN1CCCCC1C (centres unmarked) [CBK282219],98.8361
9,O=C(NCCC(c1ccccc1)c1ccco1)C1CCCN1 (centres unmarked) [CBK282499],119.28
10,O=C(O)C1=CC(c2ccc(O)cc2)n2ncnc2N1 (centres unmarked) [CBK286545],93.2675
11,O=C(C1CCCN1)N1CC2(CCCC2)c2c(F)cccc21 (centres unmarked) [CBK304489],52.1994
12,Cc1cccc(-c2ccc(CC3(C(N)=O)CCN(C(=O)CCc4ccccc4)CC3)cc2)c1 [CBK285796],41.2393
13,N=C1NC(=O)C(CC(=O)Nc2ccc(SC(F)F)cc2)S1 (centres unmarked) [CBK265648],109.057
14,Cc1nn(-c2ccccc2)c2[nH]c(=O)c(CNC(C)(C)C)cc12 [CBK282921],81.7603
15,CC(C(=O)NCCN1CCOCC1)N1c2cccc3cccc(c23)S1(=O)=O (centres unmarked) [CBK269911],96.9628
16,COC(=O)c1ccccc1NC(=O)c1c(C)c(-c2ccc(C)cc2)nc2ccccc12 [CBK263641],113.997
17,CN(C(=O)c1ccccc1C(=O)O)C1CC(C)(C)NC(C)(C)C1 [CBK287117],102.991
18,Cc1ccc(C)c(OCCN(C)c2cc(C3CC(N)C3)nc(N)n2)c1 (centres unmarked) [CBK307695],1.817
19,COC(=O)c1ccccc1NC(=O)CSc1nnc(-c2sc(N)nc2C)o1 [CBK266250],123.356
20,CCN(C(C)COC)S(=O)(=O)c1ccc(C(F)(F)F)nc1 (centres unmarked) [CBK304042],100.652
21,CSCCC(=O)N1CCN(C(=O)c2ccco2)CC1 [CBK144468],94.2022
22,O=C1COc2ccccc2CCCCC2(CCCN(C(=O)CCN3CCCC3=O)C2)CN1 (centres unmarked) [CBK291998],122.642
23,CC1CCCCN1CCCNC(=O)c1ccc(-c2nc(-c3ccc(C#N)cc3)cnc2N)cc1 (centres unmarked) [CBK107139],76.0297
24,Cc1nc(NCCN2CCCC(CO)C2)nc2c1CCCC2 (centres unmarked) [CBK307430],73.6958
25,Cc1[nH]ncc1C(=O)N1CCn2cc(C(F)(F)F)nc2C1 [CBK282307],120.727
26,CCC(=O)Nc1ccc(-c2csc(N(C)C)n2)cc1 [CBK304294C],80.8096
